From the supplement of paper PMC4967469
Lines with a small IC50 respond at low doses; a limit (>, <) means that the fit lies beyond the doses tested. AUC is the area under the same curve over the 256-fold range up to the top dose, as a fraction; the more sensitive the line, the further below 1. For some of these results: An inferred top dose is not printed in the source and was worked back from the curve model.

Columns and labels:
Test in all cases: Viability of human cancer cell lines after 72 h of drug (GDSC screen)
Bryostatin 1 = compound: CCC/C=C/C=C/C(=O)O[C@H]1/C(=C/C(=O)OC)C[C@H]2C[C@H]([C@@H](C)O)OC(=O)C[C@H](O)C[C@@H]3C[C@H](OC(C)=O)C(C)(C)[C@](O)(C[C@@H]4C/C(=C/C(=O)OC)C[C@H](/C=C/C(C)(C)[C@]1(O)O2)O4)O3 [Bryostatin 1]; settings: top dose 0.008 µM; top dose inferred
Method: (§1)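 Human cancer cell lines in 384-well plates, medium with 10% serum, drug for 72 h over a 256-fold dose range (nine 2-fold or five 4-fold steps up to the top dose). Adherent lines were fixed and stained with the nucleic acid dye Syto60, suspension lines read with resazurin; signal relative to control wells, capped at 0 and 100%. One two-parameter sigmoid per drug and line, fitted in a mixed model over all curves with the slope shared within a line.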

Lenalidomide = compound: Nc1cccc2c1CN(C1CCC(=O)NC1=O)C2=O [Lenalidomide]; settings: top dose 5 µM; top dose inferred
Method: as §1

GW-2580 = compound: COc1ccc(COc2ccc(Cc3cnc(N)nc3N)cc2OC)cc1 [GW-2580]; settings: top dose 20 µM; top dose inferred
Method: as §1

SGC0946 = compound: CC(C)N(CCCNC(=O)Nc1ccc(C(C)(C)C)cc1)C[C@H]1O[C@@H](n2cc(Br)c3c(N)ncnc32)[C@H](O)[C@@H]1O [SGC0946]; settings: top dose 0.5 µM; top dose inferred
Method: as §1

VX-680 = compound: Cc1cc(Nc2cc(N3CCN(C)CC3)nc(Sc3ccc(NC(=O)C4CC4)cc3)n2)n[nH]1 [VX-680]; settings: top dose 2 µM
Method: as §1

Cell Line | AUC (Bryostatin 1) | IC50 (Bryostatin 1) [nM] | AUC (Lenalidomide) | IC50 (Lenalidomide) [µM] | AUC (GW-2580) | IC50 (GW-2580) [µM] | AUC (SGC0946) | IC50 (SGC0946) [nM] | AUC (VX-680) | IC50 (VX-680) [nM]
H9 (lymphoid neoplasm, suspension) | 0.967 | > 8 | 0.992 | > 5 | 0.967 | > 20 | 0.981 | > 500 | 0.412 | 75.3
HCC1187 (breast, suspension) | 0.982 | > 8 | 0.986 | > 5 | 0.971 | > 20 | 0.988 | > 500 | 0.8 | 910
HL-60 (acute myeloid leukaemia, suspension) | 0.971 | > 8 | 0.962 | > 5 | 0.987 | > 20 | 0.989 | > 500 | 0.622 | 261
HT (B-cell lymphoma, suspension) | 0.986 | > 8 | 0.989 | > 5 | 0.987 | > 20 | 0.989 | > 500 | 0.988 | > 2000
HUTU-80 (digestive system, adherent) | 0.96 | > 8 | 0.991 | > 5 | 0.939 | > 20 | 0.991 | > 500 | 0.24 | 26.2
IST-SL1 (small cell lung carcinoma, semi-adherent) | 0.982 | > 8 | 0.978 | > 5 | 0.986 | > 20 | 0.984 | > 500 | 0.79 | 923
IST-SL2 (small cell lung carcinoma, suspension) | 0.987 | > 8 | 0.989 | > 5 | 0.977 | > 20 | 0.987 | > 500 | 0.718 | 513
JM1 (B-cell lymphoma, suspension) | 0.984 | > 8 | 0.963 | > 5 | 0.991 | > 20 | 0.988 | > 500 | 0.765 | 635
JSC-1 (B-cell lymphoma, suspension) | 0.986 | > 8 | 0.944 | > 5 | 0.943 | > 20 | 0.975 | > 500 | 0.62 | 266
K5 (thyroid, adherent) | 0.98 | > 8 | 0.981 | > 5 | 0.985 | > 20 | 0.985 | > 500 | 0.813 | 1020
KARPAS-422 (B-cell lymphoma, suspension) | 0.944 | > 8 | 0.981 | > 5 | 0.985 | > 20 | 0.985 | > 500 | 0.915 | > 2000
KCL-22 (chronic myeloid leukaemia, suspension) | 0.982 | > 8 | 0.991 | > 5 | 0.991 | > 20 | 0.99 | > 500 | 0.631 | 269
KGN (ovary, adherent) | 0.978 | > 8 | 0.958 | > 5 | 0.98 | > 20 | 0.977 | > 500 | 0.54 | 164
KINGS-1 (glioma, adherent) | 0.977 | > 8 | 0.972 | > 5 | 0.978 | > 20 | 0.978 | > 500 | 0.95 | > 2000
KLE (endometrium, adherent) | 0.977 | > 8 | 0.977 | > 5 | 0.974 | > 20 | 0.975 | > 500 | 0.93 | > 2000
KM12 (large intestine, adherent) | 0.979 | > 8 | 0.985 | > 5 | 0.819 | 12.7 | 0.783 | 229 | 0.59 | 225
KNS-42 (glioma, adherent) | 0.971 | > 8 | 0.984 | > 5 | 0.983 | > 20 | 0.969 | > 500 | 0.943 | > 2000
KNS-81-FD (glioma, adherent) | 0.979 | > 8 | 0.981 | > 5 | 0.971 | > 20 | 0.976 | > 500 | 0.941 | > 2000
KOPN-8 (B-cell leukaemia, suspension) | 0.947 | > 8 | 0.99 | > 5 | 0.99 | > 20 | 0.989 | > 500 | 0.364 | 56
KS-1 (glioma, adherent) | 0.968 | > 8 | 0.961 | > 5 | 0.951 | > 20 | 0.97 | > 500 | 0.512 | 136
KURAMOCHI (ovary, adherent) | 0.979 | > 8 | 0.984 | > 5 | 0.984 | > 20 | 0.981 | > 500 | 0.761 | 814
KY821 (leukaemia, suspension) | 0.99 | > 8 | 0.984 | > 5 | 0.992 | > 20 | 0.991 | > 500 | 0.909 | > 2000
L-540 (Hodgkin lymphoma, suspension) | 0.989 | > 8 | 0.977 | > 5 | 0.99 | > 20 | 0.985 | > 500 | 0.935 | > 2000
L-1236 (Hodgkin lymphoma, suspension) | 0.986 | > 8 | 0.992 | > 5 | 0.919 | > 20 | 0.992 | > 500 | 0.99 | > 2000
LAN-6 (neuroblastoma, adherent) | 0.984 | > 8 | 0.985 | > 5 | 0.973 | > 20 | 0.983 | > 500 | 0.929 | > 2000

Cell Line | AUC (Bryostatin 1) | IC50 (Bryostatin 1) [nM] | AUC (Lenalidomide) | IC50 (Lenalidomide) [µM] | AUC (GW-2580) | IC50 (GW-2580) [µM] | AUC (SGC0946) | IC50 (SGC0946) [nM] | AUC (VX-680) | IC50 (VX-680) [nM]
LB373-MEL-D (melanoma, adherent) | 0.976 | > 8 | 0.99 | > 5 | 0.99 | > 20 | 0.989 | > 500 | 0.95 | > 2000
LB831-BLC (bladder, adherent) | 0.935 | > 8 | 0.987 | > 5 | 0.985 | > 20 | 0.985 | > 500 | 0.959 | > 2000
LB2241-RCC (kidney, adherent) | 0.981 | > 8 | 0.981 | > 5 | 0.983 | > 20 | 0.966 | > 500 | 0.879 | > 2000
LB2518-MEL (melanoma, adherent) | 0.975 | > 8 | 0.987 | > 5 | 0.986 | > 20 | 0.983 | > 500 | 0.949 | > 2000
LS-123 (large intestine, adherent) | 0.975 | > 8 | 0.961 | > 5 | 0.972 | > 20 | 0.98 | > 500 | 0.91 | > 2000
LS-411N (large intestine, adherent) | 0.979 | > 8 | 0.968 | > 5 | 0.979 | > 20 | 0.979 | > 500 | 0.765 | 886
LS-1034 (large intestine, adherent) | 0.985 | > 8 | 0.984 | > 5 | 0.976 | > 20 | 0.984 | > 500 | 0.887 | > 2000
LU-65 (large cell lung carcinoma, suspension) | 0.982 | > 8 | 0.987 | > 5 | 0.975 | > 20 | 0.975 | > 500 | 0.986 | > 2000
LU-134-A (small cell lung carcinoma, suspension) | 0.983 | > 8 | 0.987 | > 5 | 0.986 | > 20 | 0.985 | > 500 | 0.813 | 1170
LU-139 (small cell lung carcinoma, suspension) | 0.978 | > 8 | 0.938 | > 5 | 0.981 | > 20 | 0.98 | > 500 | 0.833 | 1840
LU-165 (small cell lung carcinoma, suspension) | 0.987 | > 8 | 0.986 | > 5 | 0.986 | > 20 | 0.986 | > 500 | 0.986 | > 2000
MC-CAR (haematopoietic neoplasm, suspension) | 0.982 | > 8 | 0.989 | > 5 | 0.982 | > 20 | 0.986 | > 500 | 0.897 | > 2000
MEG-01 (chronic myeloid leukaemia, suspension) | 0.981 | > 8 | 0.988 | > 5 | 0.987 | > 20 | 0.986 | > 500 | 0.636 | 289
MFH-ino (soft tissue, adherent) | 0.969 | > 8 | 0.962 | > 5 | 0.978 | > 20 | 0.98 | > 500 | 0.141 | < 7.81
MFM-223 (breast, adherent) | 0.983 | > 8 | 0.989 | > 5 | 0.988 | > 20 | 0.988 | > 500 | 0.988 | > 2000
ML-2 (acute myeloid leukaemia, suspension) | 0.936 | > 8 | 0.972 | > 5 | 0.99 | > 20 | 0.989 | > 500 | 0.721 | 487
MLMA (hairy cell leukaemia, semi-adherent) | 0.98 | > 8 | 0.935 | > 5 | 0.986 | > 20 | 0.984 | > 500 | 0.98 | > 2000
MN-60 (B-cell leukaemia, suspension) | 0.982 | > 8 | 0.968 | > 5 | 0.982 | > 20 | 0.975 | > 500 | 0.986 | > 2000
MOLP-8 (myeloma, suspension) | 0.953 | > 8 | 0.965 | > 5 | 0.979 | > 20 | 0.975 | > 500 | 0.927 | > 2000
MONO-MAC-6 (acute myeloid leukaemia, suspension) | 0.957 | > 8 | 0.945 | > 5 | 0.955 | > 20 | 0.98 | > 500 | 0.446 | 88.2
MS-1 (small cell lung carcinoma, suspension) | 0.987 | > 8 | 0.99 | > 5 | 0.963 | > 20 | 0.991 | > 500 | 0.988 | > 2000
MZ1-PC (pancreas, adherent) | 0.977 | > 8 | 0.979 | > 5 | 0.678 | 4.46 | 0.977 | > 500 | 0.82 | 1530
Mo-T (hairy cell leukaemia, suspension) | 0.978 | > 8 | 0.953 | > 5 | 0.968 | > 20 | 0.979 | > 500 | 0.988 | > 2000
NAMALWA (Burkitt lymphoma, suspension) | 0.984 | > 8 | 0.984 | > 5 | 0.99 | > 20 | 0.991 | > 500 | 0.585 | 205
